Laboratory results as given in patent US20240270806A1 (Chugai, published 2024).
Residue numbers refer to the chain shown, from its start.

B1: Bivalent IL-12 fusion protein FP33 (other)
heavy: QVQLVQSGAEVKKPGSSVKVSCKASGGTFSDYYLHWSRQAPGQGLEWMGWIDPENGDTEYAPKFQGRVTITADESTSTAYMELSSLRSEDTAVYYCARNKELRYIDVWGQGTLVTVSSTSGSGRSATPRGASTKGPSVFPLAPCSKSTSGGTAALGCLVKDYFPEPVTVSWNSGALTSGVHTFPAVLQSSGLYSLSSVVTVPSSSLGTQTYICNVNHKPSNTKVDKRVGGGGSGGGGS[human IgG1 Fc with changes cut from this listing]GSGGSGGSGGSGGSGGSIWELKKDVYVVELDWKPDAPGEMVVLTCDTPEEDGITWTLDQSSEVLGSGKTLTIQVKEFGDAGQYTCHKGGEVLSHSLLLLHKKEDGIWSTDILKDQKEPKNKTFLRCEAKNYSGRFTCWWLTTISTDLTFSVKSSRGSSDPQGVTCGAATLSAERVRGDNKEYEYSVECQEDSACPAAEESLPIEVMVDAVHKLKYENYTSSFFIRDIIKPDPPKNLQLKPLKNSRQVEVSWEYPDTWSTPHSYFSLTFCVQVQGKHKEKKDRVFTDKTSATVICRKNASISVRAQDRYYSSSWSEWASVPCSGGGGSGGGGSGGGGSGGGGSNLPVATPDPGMFPCLHHSQNLLRAVSNMLQKARQTLEFYPCTSEEIDHEDITKDKTSTVEACLPLELTKNESCLNSRETSFITNGSCLASRKTSFMMALCLSSIYEDLKMYQVEFKTMNAKLLMDPKRQIFLDQNMLAVIDELMQALNFNSETVPQKSSLEEPDFYKTKIKLCILLHAFRIRAVTIDRVMSYLNAS
light: DIVMTQSPLSLPVTPGEPASISCRASQSISINLHWYQQKPGQAPRQLIAFASQSISGVPSRFSGSGSGTDFTLTISSLQPEDFATYYCQQSNSFPLTFGQGTKVEIKRTVAAPSVFIFPPSDEQLKSGTASVVCLLNNFYPREAKVQWKVDNALQSGNSQESVTEQDSKDSTYSLSSTLTLSKADYEKHKVYACEVTHQGLSSPVTKSFNRGEC
B2: Bivalent IL-12 fusion protein FP29 (other)
heavy: QVQLVQSGAEVKKPGSSVKVSCKASGGTFSDYYLHWSRQAPGQGLEWMGWIDPENGDTEYAPKFQGRVTITADESTSTAYMELSSLRSEDTAVYYCARNKELRYIDVWGQGTLVTVSSTSGSGRSATPRGASTKGPSVFPLAPCSKSTSGGTAALGCLVKDYFPEPVTVSWNSGALTSGVHTFPAVLQSSGLYSLSSVVTVPSSSLGTQTYICNVNHKPSNTKVDKRVGGGGSGGGGS[human IgG1 Fc with changes cut from this listing]GSGGSGGSGGSGGSGGSIWELKKDVYVVELDWNPDAPGEMVVLTCDTPEEDGITWTLDQSSEVLGSGKTLTIQVKEFGDAGQYTCHKGGEVLSHSLLLLHKKEDGIWSTDILKDQKEPKNKTFLRCEAKNYSGRFTCWWLTTISTDLTFSVKSSRGSSDPQGVTCGAATLSAERVRGDNKEYEYSVECQEDSACPAAEESLPIEVMVDAVHKLKYENYTSSFFIRDIIKPDPPKNLQLKPLKNSRQVEVSWEYPDTWSTPHSYFSLTFCVQVQGKHKEKKDRVFTDKTSATVICRKNASISVRAQDRYYSSSWSEWASVPCSGGGGSGGGGSGGGGSGGGGSNLPVATPDPGMFPCLHHSQNLLRAVSNMLQKARQTLEFYPCTSEEIDHEDITKDKTSTVEACLPLELTKNESCLNSRETSFITNGSCLASRKTSFMMALCLSSIYEDLKMYQVEFKTMNAKLLMDPKRQIFLDQNMLAVIDELMQALNFNSETVPQKSSLEEPDFYKTKIKLCILLHAFRIRAVTIDRVMSYLNAS
light: B1 light
B3: Bivalent IL-12 fusion protein FP48 (other)
heavy: QVQLVQSGAEVKKPGSSVKVSCKASGGTFSDYYLHWSRQAPGQGLEWMGWIDPENGDTEYAPKFQGRVTITADESTSTAYMELSSLRSEDTAVYYCARNKELRYIDVWGQGTLVTVSSYSATGRSANPRGASTKGPSVFPLAPCSKSTSGGTAALGCLVKDYFPEPVTVSWNSGALTSGVHTFPAVLQSSGLYSLSSVVTVPSSSLGTQTYICNVNHKPSNTKVDKRVGGGGSGGGGS[human IgG1 Fc with changes cut from this listing]GSGGSGGSGGSGGSGGSIWELKKDVYVVELDWPPDAPGEMVVLTCDTPEEDGITWTLDQSSEVLGSGKTLTIQVKEFGDAGQYTCHKGGEVLSHSLLLLHKKEDGIWSTDILKDQKEPKNKTFLRCEAKNYSGRFTCWWLTTISTDLTFSVKSSRGSSDPQGVTCGAATLSAERVRGDNKEYEYSVECQEDSACPAAEESLPIEVMVDAVHKLKYENYTSSFFIRDIIKPDPPKNLQLKPLKNSRQVEVSWEYPDTWSTPHSYFSLTFCVQVQGKHKEKKDRVFTDKTSATVICRKNASISVRAQDRYYSSSWSEWASVPCSGGGGSGGGGSGGGGSGGGGSNLPVATPDPGMFPCLHHSQNLLRAVSNMLQKARQTLEFYPCTSEEIDHEDITKDKTSTVEACLPLELTKNESCLNSRETSFITNGSCLASRKTSFMMALCLSSIYEDLKMYQVEFKTMNAKLLMDPKRQIFLDQNMLAVIDELMQALNFNSETVPQKSSLEEPDFYKTKIKLCILLHAFRIRAVTIDRVMSYLNAS
light: B1 light with S30V
B4: Bivalent IL-12 fusion protein FP35 (other)
heavy: QVQLVQSGAEVKKPGSSVKVSCKASGGTFSDYYLHWSRQAPGQGLEWMGWIDPENGDTEYAPKFQGRVTITADESTSTAYMELSSLRSEDTAVYYCARNKELRYIDVWGQGTLVTVSSTSGSGRSATPRGASTKGPSVFPLAPCSKSTSGGTAALGCLVKDYFPEPVTVSWNSGALTSGVHTFPAVLQSSGLYSLSSVVTVPSSSLGTQTYICNVNHKPSNTKVDKRVGGGGSGGGGS[human IgG1 Fc with changes cut from this listing]GSGGSGGSGGSGGSGGSIWELKKDVYVVELDWDPDAPGEMVVLTCDTPEEDGITWTLDQSSEVLGSGKTLTIQVKEFGDAGQYTCHKGGEVLSHSLLLLHKKEDGIWSTDILKDQKEPKNKTFLRCEAKNYSGRFTCWWLTTISTDLTFSVKSSRGSSDPQGVTCGAATLSAERVRGDNKEYEYSVECQEDSACPAAEESLPIEVMVDAVHKLKYENYTSSFFIRDIIKPDPPKNLQLKPLKNSRQVEVSWEYPDTWSTPHSYFSLTFCVQVQGKHKEKKDRVFTDKTSATVICRKNASISVRAQDRYYSSSWSEWASVPCSGGGGSGGGGSGGGGSGGGGSNLPVATPDPGMFPCLHHSQNLLRAVSNMLQKARQTLEFYPCTSEEIDHEDITKDKTSTVEACLPLELTKNESCLNSRETSFITNGSCLASRKTSFMMALCLSSIYEDLKMYQVEFKTMNAKLLMDPKRQIFLDQNMLAVIDELMQALNFNSETVPQKSSLEEPDFYKTKIKLCILLHAFRIRAVTIDRVMSYLNAS
light: B1 light
B5: Bivalent IL-12 fusion protein FP32 (other)
heavy: QVQLVQSGAEVKKPGSSVKVSCKASGGTFSDYYLHWSRQAPGQGLEWMGWIDPENGDTEYAPKFQGRVTITADESTSTAYMELSSLRSEDTAVYYCARNKELRYIDVWGQGTLVTVSSTSGSGRSATPRGASTKGPSVFPLAPCSKSTSGGTAALGCLVKDYFPEPVTVSWNSGALTSGVHTFPAVLQSSGLYSLSSVVTVPSSSLGTQTYICNVNHKPSNTKVDKRVGGGGSGGGGS[human IgG1 Fc with changes cut from this listing]GSGGSGGSGGSGGSGGSIWELKKDVYVVELDWGPDAPGEMVVLTCDTPEEDGITWTLDQSSEVLGSGKTLTIQVKEFGDAGQYTCHKGGEVLSHSLLLLHKKEDGIWSTDILKDQKEPKNKTFLRCEAKNYSGRFTCWWLTTISTDLTFSVKSSRGSSDPQGVTCGAATLSAERVRGDNKEYEYSVECQEDSACPAAEESLPIEVMVDAVHKLKYENYTSSFFIRDIIKPDPPKNLQLKPLKNSRQVEVSWEYPDTWSTPHSYFSLTFCVQVQGKHKEKKDRVFTDKTSATVICRKNASISVRAQDRYYSSSWSEWASVPCSGGGGSGGGGSGGGGSGGGGSNLPVATPDPGMFPCLHHSQNLLRAVSNMLQKARQTLEFYPCTSEEIDHEDITKDKTSTVEACLPLELTKNESCLNSRETSFITNGSCLASRKTSFMMALCLSSIYEDLKMYQVEFKTMNAKLLMDPKRQIFLDQNMLAVIDELMQALNFNSETVPQKSSLEEPDFYKTKIKLCILLHAFRIRAVTIDRVMSYLNAS
light: B1 light
B6: Bivalent IL-12 fusion protein FP37 (other)
heavy: QVQLVQSGAEVKKPGSSVKVSCKASGGTFSDYYLHWSRQAPGQGLEWMGWIDPENGDTEYAPKFQGRVTITADESTSTAYMELSSLRSEDTAVYYCARNKELRYIDVWGQGTLVTVSSTSGSGRSATPRGASTKGPSVFPLAPCSKSTSGGTAALGCLVKDYFPEPVTVSWNSGALTSGVHTFPAVLQSSGLYSLSSVVTVPSSSLGTQTYICNVNHKPSNTKVDKRVGGGGSGGGGS[human IgG1 Fc with changes cut from this listing]GSGGSGGSGGSGGSGGSIWELKKDVYVVELDWIPDAPGEMVVLTCDTPEEDGITWTLDQSSEVLGSGKTLTIQVKEFGDAGQYTCHKGGEVLSHSLLLLHKKEDGIWSTDILKDQKEPKNKTFLRCEAKNYSGRFTCWWLTTISTDLTFSVKSSRGSSDPQGVTCGAATLSAERVRGDNKEYEYSVECQEDSACPAAEESLPIEVMVDAVHKLKYENYTSSFFIRDIIKPDPPKNLQLKPLKNSRQVEVSWEYPDTWSTPHSYFSLTFCVQVQGKHKEKKDRVFTDKTSATVICRKNASISVRAQDRYYSSSWSEWASVPCSGGGGSGGGGSGGGGSGGGGSNLPVATPDPGMFPCLHHSQNLLRAVSNMLQKARQTLEFYPCTSEEIDHEDITKDKTSTVEACLPLELTKNESCLNSRETSFITNGSCLASRKTSFMMALCLSSIYEDLKMYQVEFKTMNAKLLMDPKRQIFLDQNMLAVIDELMQALNFNSETVPQKSSLEEPDFYKTKIKLCILLHAFRIRAVTIDRVMSYLNAS
light: B1 light

These binders were tested against Human IL-12 receptor (human IL-12Rb1 and IL-12Rb2) (human, UniProt P42701 24-662; Q99665 24-862) (assay: cell-based or functional assay).
With B1 the “Fold change (window), IL-12 luciferase assay” value (shortened to “Fold change (window)”) was 80 fold. In the case of B2, the “Fold change (window)” value is reported as 172 fold. B3 was tested, and the “Fold change (window)” value was 391 fold. For B4, the “Fold change (window)” value was 89.7 fold. For B5, the “Fold change (window)” value was 238 fold. B6 was tested, and the “Fold change (window)” value was 52.4 fold.
